The whole screen tested about 390,000 compounds, of which about 930 (0.24%) were called active. Inconclusive means that the source gave no clear call. Such entries were picked first, then a sample of the others. Calls follow the shape of the dose curve; as a rule, active = well fitted activation curve with a large enough effect; inconclusive = small, poorly fitted or top-dose-only effect; inactive = no such curve, though single readings can be large or run the other way. Potencies beside an inconclusive call are fits to weak or partial responses and may not hold up.
Assay: qHTS for Suppressors of FUS Proteinopathy: Primary screen using FUS-linked yeast assay; also: nearly all actives have a fitted effect of over 55% in size
Details: S. cerevisiae FUS-expressing, OD600, 24 h; Potency: growth rescue; series mostly up to 76.6 µM
Method in brief: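 Compound concentration series was pinned onto galactose-induced FUS-expressing yeast seeded at OD 0.005. Plates sat 24hr at 30C; absorbance at 600 nm gave growth. DMSO served as background control.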
Potency is read from the fitted curve at half-maximal effect; tags tell the direction and shape of the fitted curve.

Structure (SMILES)	Potency
CC(C)OC(=O)c1c(NC(=O)c2cc3nc(-c4ccccc4)cc(C(F)(F)F)n3n2)sc2c1CCCC2	inactive
CC(C(=O)NCc1ccc(Cl)cc1)n1ccc2cc(S(=O)(=O)N3CCCC3)ccc21 (stereo not given)	inconclusive: 31.6 µM [activator, single point]
COc1ccc(-c2cc(-c3nnc(SCC(=O)Nc4ccccc4-c4ccccc4)n3N)[nH]n2)cc1	inconclusive: 14.1 µM [activator, partial curve]
CCOC(=O)c1noc2nc(C)n(CC(=O)Nc3ccc(Br)cc3C)c(=O)c12	inactive
CCOc1ccccc1N(CC)C(=O)c1cc2c(=O)n(CC)c3ccccc3c2s1	active: 31.6 µM
Cc1cc(Nc2cccc(C(F)(F)F)c2)nc2ccc(NC(=O)c3cncc(Br)c3)cc12	inconclusive: 25.1 µM [activator, partial curve, poor fit]
CCOC(=O)N1CCN(CC(=O)Nc2c(C(=O)OC)[nH]c3ccccc23)CC1	inactive
CC(C)C1C(=O)N(Cc2cn(Cc3ccco3)nn2)CCS(=O)(=O)N1Cc1ccc(-c2ccc(F)cc2)cc1 (stereo not given)	inconclusive: 17.8 µM [activator, partial curve, poor fit]
O=C(NCC1CCCN1S(=O)(=O)c1cccs1)c1cccc(F)c1 (stereo not given)	inconclusive: 50.1 µM [activator, single point]
COC(=O)C1=C(C(=O)OC)[C@@H]2Nc3ccccc3[C@@]23C[C@@H](C(=O)OC)N(C(=O)NC2CCCCC2)C3=N1	inconclusive: 31.6 µM [activator, single point]
Cc1ccc(S(=O)(=O)N(C)c2ccc(OC(=O)CN3C(=O)NC(C)(c4ccccc4)C3=O)cc2)cc1C (stereo not given)	inconclusive: 25.1 µM [activator, partial curve, poor fit]
c1ccc(-c2nnc3n2N=C(c2ccc4ccccc4c2)CS3)nc1	inconclusive: 20 µM [activator, partial curve]
Cn1c(=O)c(C(=O)COC(=O)c2cc(C3CC3)nc3ccccc23)c(N)n(Cc2ccccc2)c1=O	inconclusive: 25.1 µM [activator, partial curve]
CCCCCC(=O)Cc1cc(O)cc2c1C(=O)Oc1cc(O)c(C(=O)O)c(CCCCC)c1O2	inconclusive: 44.7 µM [activator, single point]
CN(c1ccccc1)S(=O)(=O)c1cc(C(=O)N2CCN(c3ccccn3)CC2)ccc1Cl	inactive
CC1=C(C(=O)N2CCCCCC2)CC(CC(=O)NC2CCCCC2)C(=O)N1Cc1ccc(C(C)(C)C)cc1 (stereo not given)	inconclusive: 25.1 µM [activator, partial curve]
CCc1cc2c(=O)c(-c3nc4ccccc4n3C)coc2c(CN2CCCCC2)c1O	inconclusive: 31.6 µM [activator, single point]
COc1ccc(CCNC(=O)CCN2C(=O)COc3ccc(C)cc32)cc1OC	inconclusive: 20 µM [activator, partial curve, poor fit]
Cc1ccc2c(C)c(C(=O)NCC(c3ccc(Cl)cc3)N3CCOCC3)oc2c1 (stereo not given)	inconclusive: 44.7 µM [activator, partial curve, poor fit]
COc1ccc(C(CNC(=O)c2cccc(S(=O)(=O)Nc3ccccc3OC)c2)N2CCCC2)cc1 (stereo not given)	inactive
CCOc1ccc(CCNC(=O)Cn2ccc3cc(S(=O)(=O)N4CCCCC4)ccc32)cc1	active: 17.8 µM
CCOC(=O)[C@H]1[C@H]2COc3ccc(C)cc3[C@@H]2N2C(=O)c3cc(Br)ccc3NC(=O)[C@@]12C	inconclusive: 44.7 µM [activator, single point]

Structure (SMILES)	Potency
O=C(Nc1ccccc1F)c1nc(SCc2ccccc2F)ncc1Cl	inactive
CCCc1nn2c(=O)cc(COC(=O)C3CCCCC3)nc2s1	inactive
O=C(C1=C(O)C(=O)N(Cc2cccnc2)C1c1cccc(Oc2ccccc2)c1)c1ccco1 (stereo not given)	inconclusive: 31.6 µM [activator, partial curve]
CCOC(=O)c1ccc(NC(=O)CN(Cc2ccc(Cl)cc2)S(C)(=O)=O)cc1	inconclusive: 28.2 µM [activator, partial curve, poor fit]
COc1ccc(-n2nc(C(=O)NCC(=O)NC3CCCC(C)C3C)c3ccccc3c2=O)cc1 (stereo not given)	inconclusive: 25.1 µM [activator, single point]
CCn1c(NCc2cc(Br)ccc2NS(=O)(=O)c2ccc(C)cc2)nc2ccccc21	inconclusive: 50.1 µM [activator, single point]
CC(C)OP(=O)(O)C(C)NC(=O)OCc1ccccc1 (stereo not given)	inactive
COC(=O)c1ccc(COC(=O)CNC(=O)c2cccs2)cc1	inactive
CCS(=O)(=O)N1Cc2ccccc2CC1C(=O)NCCc1c[nH]c2ccccc12 (stereo not given)	inconclusive: 12.6 µM [activator, partial curve, poor fit]
COc1ccc(C2/C=C\CN(C(=O)CC(C)(C)C)CC(=O)N2Cc2ccc(F)cc2)cc1 (stereo not given)	inactive
CSc1nc2ccc(NC(=O)C3=NN(c4ccccc4)C(=O)CC3)cc2s1	inconclusive: 31.6 µM [activator, partial curve, poor fit]
Cc1cc2oc(C(=O)N(Cc3ccc(N(C)C)cc3)CC3CCCO3)c(C)c2cc1Cl (stereo not given)	inactive
COC(=O)C1C(=O)C2=C(CC1C)NC(C)=C(C(=O)OC1CCCCC1)C2c1ccc(N(C)C)cc1 (stereo not given)	inconclusive: 35.5 µM [activator, single point]
Cc1ccc(OCCn2c(CCNC(=O)c3ccc(F)cc3F)nc3ccccc32)cc1	inconclusive: 14.1 µM [activator, partial curve]
COc1ccc(-n2c(Cc3cccs3)nnc2SCC(=O)Nc2cccc3ccccc23)cc1	inconclusive: 17.8 µM [activator, partial curve, poor fit]
CCOC(=O)[C@@H]1[C@H]2COc3cc(OC)ccc3[C@H]2N2C(=O)N(c3ccc(OC)cc3)C(=O)[C@]12C	inconclusive: 35.5 µM [activator, single point]
CCCC(C)C(=O)NC1CCCCN(Cc2ccc(C)cc2)C1=O (stereo not given)	inactive
CSc1cccc(NC(=O)C2CCCN(C(=O)c3cnn(-c4ccc(F)cc4)c3-n3cccc3)C2)c1 (stereo not given)	inconclusive: 35.5 µM [activator, single point]
Cc1ccc(S(=O)(=O)N2CCC(=O)N(CCOCc3cccc(C(F)(F)F)c3)CC2)cc1	inconclusive: 28.2 µM [activator, single point]
COc1cccc(-c2cnc3c(NC=O)cc(-c4ccccc4)cn23)c1	inactive
COC(=O)/N=C(/Cc1ccc(OC)cc1)c1ccc(OC)cc1	inactive
C/C(CC(=O)Nc1ccc(N(C)C)cc1)=N\NC(=O)c1ccccn1	inconclusive: 15.8 µM [activator, partial curve]

Structure (SMILES)	Potency
COC(=O)[C@]12C[C@H](CC(=O)NCCC(C)C)C(=O)N(Cc3cccc4ccccc34)C1=C[C@H](COCc1ccccc1)O[C@@H]2C	inconclusive: 7.08 µM [activator, full curve]
COc1cc(NS(=O)(=O)c2ccc(NC(=S)NC(=O)CC(C)C)cc2)nc(OC)n1	inconclusive: 50.1 µM [activator, single point]
COC(=O)c1sccc1S(=O)(=O)N1CCN(c2ccc(C)cc2C)CC1	inconclusive: 25.1 µM [activator, partial curve]
COc1ccc(C(=O)NC(C)CCc2ccccc2)cc1[N+](=O)[O-] (stereo not given)	inactive
CCCCC[C@H]1CN(Cc2ccccc2)C(=O)[C@@H]1CC(=O)NCc1ccccc1	inconclusive: 25.1 µM [activator, partial curve]
Clc1cccc(CN2CCSCC2)c1	inactive
Cc1ccc(N(C)S(=O)(=O)c2cccc(C(=O)Nc3ccc(N4CCOCC4)cc3)c2)cc1	inconclusive: 35.5 µM [activator, single point]
COC(=O)c1[nH]c2ccc(C)cc2c1NC(=O)NC1CCCCC1	inactive
CCOC(=O)Cn1c(=O)cc(C(F)(F)C(F)(F)F)c2c(C)nn(CC)c21	inconclusive: 39.8 µM [activator, single point]
CCCNCc1cc(Cl)c(OCC)c(Cl)c1	inactive
CC(C)(C)OC(=O)C[C@@H]1C/C=C\C[C@H](CC(=O)N(CCO)Cc2ccccc2)C(=O)N[C@@H](c2ccccc2)COC1=O	inconclusive: 3.98 µM [activator, full curve]
Cc1cc2ncn(CC(C)C)c2cc1C	inactive
COc1cccc(-n2c(-c3ccccc3F)nc3c(cnn3-c3ccc(C)cc3)c2=O)c1	active: 15.8 µM
COc1cc2c(cc1NC(=O)c1ccccc1-c1ccccc1C(=O)O)-c1ccccc1C2	inconclusive: 28.2 µM [activator, partial curve]
Cc1cc(C)c2nc(-c3ccccn3)cc(C(=O)NCc3cc(C)n(C)n3)c2c1	inactive
COCCNC(=O)CSc1nc2cc3c(cc2c(=O)n1CCCC(=O)NCc1ccc2c(c1)OCO2)OCO3	inactive
Cc1ccc(C)n1NC(=O)c1ccccc1	active: 20 µM
COc1ccc2[nH]c(=O)c(CN(C(C)=O)C3CCCCC3)cc2c1	inactive
COc1ccc(C)cc1NS(=O)(=O)c1ccc2c3c(cccc13)C(=O)N2	inactive
CC(C)(C)S(=O)N1Cc2cc(C(=O)NCc3ccc(Oc4ccccc4)cc3)nc(-c3cccc(-c4cc5ccccc5o4)c3)c2[C@@H]1CCO (stereo not given in full)	active: 31.6 µM
Cc1ccc(-c2nc(SCC(=O)NCC3CCCO3)c3c(=O)n(C)c(=O)n(C)c3n2)cc1 (stereo not given)	inactive
